The results in this text go back to ChEMBL document CHEMBL4888484, “Replenishing the malaria drug discovery pipeline: Screening and hit evaluation of the MMV Hit Generation Library 1 (HGL1) against asexual blood stage Plasmodium falciparum ,using a nano luciferase reporter read-out” (2022).

The campaign covered roughly 150,000 compounds. About 540 (0.36%) showed an effect of 50% or more. This is one part of the list.

This assay relates to Plasmodium falciparum. Nature of the assay: Primary screen in NF54 nanoGlo assay, in single point, at 2uM, 72h; a lower Z score goes with more inhibition. To be noted: timepoint 72 hour. The class given is functional, Erythrocyte.
With `COc1cc(-c2cccc(C(=O)NCC[C@H]3CCOC3)c2)nc(OC)n1`, the % Inhibition (in general, the change of the read-out against control, counted positive when it falls) is reported as -3% and the Z score stood at 0.37.
On to `O=S(=O)(CCCF)NCC1CN(S(=O)(=O)c2ccccc2)C2CCN1C2` (configuration not stated), for which the “% Inhibition” value is -4% and the Z score is reported as 0.47.
Taken in the same sequence, the figures for `CCc1cc(-c2c(C)c(-c3ccc(O)cc3)nc(N)c2C#N)[nH]n1` were -13% and 1.65.
Taken in the same sequence, the figures for `Cc1noc([C@]23CN(C(=O)CC(C)C)C[C@H]2CN(C(=O)c2ccccc2)C3)n1` were -5% and 0.61.
As for `O=C(c1cn2c3c(cccc3c1=O)CC2)N1CCc2ccccc2C1`, the “% Inhibition” value is listed as 6% and the Z score is listed as -0.73.
Taken in the same sequence, the figures for `Cc1cc(C)nc(CCNC(=O)N2CCC3(CC2)CN(C)C(=O)CO3)n1` were -7% and 1.47.
Regarding `COCC1(NC(=O)c2cccc(-c3ccc4c(cnn4C)c3)c2)CCCC1`, the “% Inhibition” value was found to be 3% and the Z score is listed as -0.34.
The corresponding values for `Cc1ccc(C(=O)N2C[C@@H]3C[C@H](NS(C)(=O)=O)[C@H]2C3)cc1F` are -3% and 0.55.
Taken in the same sequence, the figures for `CCOCCCC(=O)N1CCC[C@H](c2nnc3ccccn23)C1` were -9% and 1.74.
Taken in the same sequence, the figures for `O=C(Cc1cccnc1)Nc1ccc(N2CCN(C3CCCCC3)C2=O)nc1` were -9% and 1.03.
On to `Cc1csc(NC(=O)CN2CCC[C@@H]2C(=O)O)n1`, for which the “% Inhibition” value was -4% and the Z score stood at 0.48.
The corresponding values for `CN(Cc1ccsc1)C(=O)CNC(=O)c1cccc(OC(F)F)c1` are -3% and 0.37.
The corresponding values for `O=C(Cc1ccc(F)cc1)Nc1cc(NC(=O)c2ccc3c(c2)OCO3)ccc1F` are -4% and 0.52.
Taken in the same sequence, the figures for `CC1CN(C(=O)c2cccc3sc(C(F)(F)F)nc23)C1` were -1% and 0.24.
Regarding `CC(Oc1ccccc1)C(=O)N1CCC[C@@H]1Cn1ccnc1` (some centres not stated), the “% Inhibition” value is listed as 2% and the Z score is -0.48.
Taken in the same sequence, the figures for `Cc1ccccc1CNc1ncnc2c1cnn2-c1ccccn1` were -7% and 1.09.
Taken in the same sequence, the figures for `Cc1c(C(=O)N(C)CCn2cccn2)nnn1CC1CCCC1` were -6% and 0.79.
The corresponding values for `CCOC(=S)c1cc2c(nc1OCC#N)CCC2` are -14% and 1.64.
Turning to `CCc1ccc(CN2CC[C@H](c3sccc3C)[C@@H](O)C2)nc1`, the “% Inhibition” value is -19% and the Z score came to 3.74.
The corresponding values for `COc1nc2c(cc1CNC(=O)[C@]1(C)CCCCO1)C(=O)N(C1CCCC1)C2` are -9% and 1.82.
Taken in the same sequence, the figures for `CC(C)CCOc1ccccc1CCNC(=O)N1CCC[C@H]1C(=O)N(C)C` were -11% and 1.61.
Taken in the same sequence, the figures for `COc1ccccc1CCC(=O)N1C[C@H]2CCC[C@@H](OC)[C@H]2C1` were -13% and 1.28.
Take `CC(C)CN(C[C@H](O)c1ccccc1)S(=O)(=O)c1cccnc1`: the “% Inhibition” value amounted to 11% and the Z score is listed as -1.42.
In the case of `Cc1nc(CNC(=O)CC(C)C)cs1`, the “% Inhibition” value is recorded as 14% and the Z score is recorded as -1.57.
The corresponding values for `CC[C@H](OC1CCCC1)C(=O)NCc1c(O)nnc(C)c1C` are -5% and 1.
Taken in the same sequence, the figures for `Cc1cc(=O)cc(C(=O)NC[C@H]2CC(=O)N(C(C)(C)C)C2)[nH]1` were 0% and 0.06.
For `OC1(c2csc(CN3CCOCC3)n2)CCN(Cc2ccccn2)CC1`, the “% Inhibition” value is -9% and the Z score was determined as 1.39.
The corresponding values for `C[C@]12C(=O)N(CCc3ccccc3)C(=O)N1CCc1c2[nH]c2ccccc12` are -4% and 0.47.
The corresponding values for `Cn1nc(C(=O)Nc2nnc(CC3CCCCC3)s2)ccc1=O` are -7% and 0.88.
Taken in the same sequence, the figures for `Nc1ccnc(CNC2CCCCC2C(F)(F)F)n1` (configuration not stated) were -4% and 0.64.
Consider `COC[C@@H]1[C@H](NS(=O)(=O)c2c(C)cccc2Cl)[C@H]2CCO[C@H]21`, for which the “% Inhibition” value is recorded as -6% and the Z score is on record as 1.09.
Taken in the same sequence, the figures for `Cc1nc(-c2ccco2)ccc1C(=O)N1CCOCC1(C)C` were -8% and 1.55.
Taken in the same sequence, the figures for `CNc1ccnc(N[C@H]2CCN(Cc3ccccc3)C2)n1` were 20% and -2.51.
Taken in the same sequence, the figures for `COc1cccc(OCCOC(=O)Nc2ccc(Cl)c(Cl)c2)c1` were -1% and 0.15.
For the compound `CC1CCN(S(=O)(=O)c2ccc(CNC(=O)c3cccc(Cl)c3)s2)CC1`, the “% Inhibition” value is reported as -9% and the Z score stood at 0.89.
The corresponding values for `CCOC(=O)c1n[nH]c2c1COC2(C)C` are -17% and 2.38.
The corresponding values for `COC(=O)C(C)(C)NC(=O)c1ccncc1` are -8% and 1.6.
The corresponding values for `CN1CC2(CCN(Cc3cn(C)c4ccccc34)CC2)C[C@H]1C(=O)N1CCOCC1` are -5% and 0.98.
On to `O=C(NC[C@@](O)(c1cccs1)C1CC1)Nc1ccccc1C(F)(F)F`, for which the “% Inhibition” value was found to be 6% and the Z score is recorded as -0.98.
The corresponding values for `COc1ccc(N2C(=O)N[C@@H](CC(=O)N3CCOCC3)C2=O)cc1` are 3% and -0.36.
Taken in the same sequence, the figures for `O=C(CC1CCCCC1)NC1CCN(CCN2CCOC2=O)CC1` were -5% and 0.99.
